Experimental findings from the supplement of paper PMC9446081 are described below.

Among all 39,000 compounds or so, about 220 (0.56%) showed activity. This is one part of the list.
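Also: static incubation at 37 °C against the wild-type strain, values averaged over two biological replicates.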

The subject of the experiment is Escherichia coli K-12 BW25113. Briefly: relative growth (OD600 normalised to plate interquartile mean) (fraction); higher = less growth inhibition, active = 0.2 or less. Conditions: 50 µM; LB; incubation time: overnight (16-24 h).
Consider `O=C(C[C@@H]1C[C@@H]2c3cc(NC(=O)Nc4ccc(C(F)(F)F)cc4)ccc3O[C@@H]2[C@@H](CO)O1)NCc1cc(F)ccc1F`, for which the relative growth was inactive: 0.995.

Take `C[C@@H]1CN([C@@H](C)CO)C(=O)Cc2cc(NC(=O)Cn3cnnn3)ccc2O[C@H]1CN(C)S(=O)(=O)c1cn(C)cn1`: the relative growth is inactive: 1.

On to `C[C@H]1CN([C@@H](C)CO)C(=O)c2cc(NS(=O)(=O)c3cn(C)cn3)ccc2O[C@H]1CN(C)C(=O)Nc1ccccc1`, for which the relative growth was inactive: 0.988.

With `C[C@@H]1CN([C@@H](C)CO)C(=O)Cc2cc(NS(=O)(=O)c3cccs3)ccc2O[C@H]1CN(C)Cc1ccc(Oc2ccccc2)cc1`, the relative growth is inactive: 0.976.

With `O=C(N[C@@H]1CC[C@H](CC(=O)N2CCOCC2)O[C@@H]1CO)c1ccc2c(c1)OCO2`, the relative growth was inactive: 1.02.

On to `CNC[C@@H]1OCCCC[C@@H](C)Oc2ccc(NS(=O)(=O)c3cn(C)cn3)cc2C(=O)N([C@@H](C)CO)C[C@H]1C`, for which the relative growth is inactive: 0.971.

Take `CNC(=O)Cn1cc(N)cn1`: the relative growth was inactive: 0.998.

In the case of `O=C(C[C@@H]1CC[C@@H]2[C@H](COC[C@@H](O)CN2S(=O)(=O)c2ccccc2Cl)O1)NCCc1ccncc1`, the relative growth was inactive: 0.98.

For the compound `C#Cc1ccc([C@H]2C=C(C(=O)N3CCOCC3)O[C@@H](OCCCCOC(=O)NCCCCCC(=O)NO)C2)cc1`, the relative growth is inactive: 0.931.

Consider `Cc1noc(C)c1S(=O)(=O)Nc1ccc2c(c1)C(=O)N([C@@H](C)CO)C[C@H](C)[C@H](CN(C)S(=O)(=O)c1ccc(F)cc1)O2`, for which the relative growth is inactive: 1.02.

Consider `COc1cccc(OC)c1C(=O)O[C@H]1[C@@H]2OC(=O)[C@H](Cc3cccc(Br)c3)C/C=C/C[C@@H](Cc3cccc(Br)c3)C(=O)O[C@H]2[C@@H](OC)O[C@@H]1CO`, for which the relative growth is inactive: 0.987.

With `Cc1noc(C)c1NC(=O)Nc1ccc2c(c1)C(=O)N([C@H](C)CO)C[C@@H](C)[C@H](CN(C)S(=O)(=O)c1ccccc1)O2`, the relative growth is inactive: 0.99.

For the compound `O=c1n(-c2ccc(F)cc2)nc2n1CCCN2`, the relative growth was inactive: 0.97.

For `Cc1noc(C)c1NC(=O)Nc1ccc2c(c1)CC(=O)N([C@@H](C)CO)C[C@H](C)[C@@H](CN(C)S(C)(=O)=O)O2`, the relative growth is inactive: 0.993.

For `Cc1cc(C)c2[nH]c3ccccc3c2n1`, the relative growth was inactive: 0.879.

Take `CC12CCC(=O)C=C1C=CC1C2CCC2(C)C1CCC21CCC(=O)O1` (stereo not drawn): the relative growth is inactive: 1.18.

Consider `O=c1c(-c2ccc(O)cc2)coc2cc(O)ccc12`, for which the relative growth was inactive: 0.967.

On to `NC(=O)N1CCC[C@H](C(=O)O)C1`, for which the relative growth was inactive: 0.99.

Take `COC(=O)CCC(C)C1CCC2C3CCC4CC(O)CCC4(C)C3CC(O)C12C` (stereo not drawn): the relative growth was inactive: 1.01.

In the case of `CCn1cc(C2=NO[C@H](C(=O)O)C2)c(C)n1`, the relative growth is inactive: 1.02.

With `Cc1ccccc1S(=O)(=O)N(C)C[C@@H]1Oc2ccc(NC(=O)Nc3cccc(C(F)(F)F)c3)cc2CC(=O)N([C@@H](C)CO)C[C@@H]1C`, the relative growth was inactive: 0.975.

Regarding `CNC[C@@H]1OCCCC[C@@H](C)Oc2ccc(NS(=O)(=O)c3cn(C)cn3)cc2C(=O)N([C@H](C)CO)C[C@H]1C`, the relative growth is inactive: 0.981.

Consider `O=C(O)c1cc(S(=O)(=O)NCCN2CCNC2=O)ccc1O`, for which the relative growth was inactive: 1.04.

On to `C[C@@H]1CN([C@H](C)CO)C(=O)Cc2cc(NC(=O)CCC(F)(F)F)ccc2O[C@@H]1CN(C)Cc1ccc(Cl)c(Cl)c1`, for which the relative growth is inactive: 0.988.

In the case of `C[C@H]1CN([C@@H](C)CO)C(=O)c2cc(NC(=O)Cc3cn(C)c4ccccc34)ccc2O[C@@H]1CN(C)Cc1ccc(C(F)(F)F)cc1`, the relative growth was inactive: 0.98.

For `C[C@H]1CN([C@@H](C)CO)C(=O)c2cccc(NC(=O)Nc3ccccc3)c2O[C@H]1CN(C)C(=O)Nc1ccc(C(F)(F)F)cc1`, the relative growth was inactive: 0.993.

On to `O=C(N[C@H](c1ccc(F)cc1)c1ccc2ccccc2n1)C1CCN(CCOc2ccc(Cl)cc2)CC1`, for which the relative growth is inactive: 0.988.

On to `C[C@@H]1CCCCO[C@@H](CN(C)Cc2ccccc2)[C@H](C)CN([C@H](C)CO)C(=O)c2cc(NC(=O)Cc3ccccc3)ccc2O1`, for which the relative growth is inactive: 0.998.

Consider `COc1ccc(S(=O)(=O)N(C)C[C@H]2Oc3ccc(NC(=O)Cn4cnnn4)cc3CC(=O)N([C@@H](C)CO)C[C@H]2C)cc1`, for which the relative growth is inactive: 0.924.

For the compound `O=C/C=C/c1ccc(Cl)cc1`, the relative growth was inactive: 0.977.

With `C[C@@H]1CN([C@@H](C)CO)C(=O)c2cc(NS(C)(=O)=O)ccc2O[C@@H](C)CCCCO[C@@H]1CN(C)C(=O)CCCN(C)C`, the relative growth is inactive: 0.996.

With `NC(=O)CSc1nnc(Cc2cc(=O)[nH]c(=O)[nH]2)n1-c1ccccc1`, the relative growth is inactive: 0.994.

As to `C[C@@H]1CN([C@H](C)CO)C(=O)c2cccc(NC(=O)C3CCOCC3)c2O[C@@H]1CN(C)C(=O)Nc1ccc2c(c1)OCO2`, the relative growth was inactive: 1.01.

Turning to `C[C@@H]1CN([C@@H](C)CO)C(=O)c2cc(C#CCN(C)C)cnc2O[C@@H]1CN(C)C(=O)c1ccc2c(c1)OCO2`, the relative growth is inactive: 0.994.

`CCn1nnnc1NCc1cccn1C`: the relative growth is inactive: 1.

With `C[C@H]1CN([C@@H](C)CO)C(=O)Cc2cc(NC(=O)Nc3ccccc3)ccc2O[C@H]1CN(C)S(=O)(=O)c1cn(C)cn1`, the relative growth is inactive: 0.993.

In the case of `COc1ccccc1CNC(=O)C[C@@H]1C[C@@H]2c3cc(NC(=O)c4ccc5c(c4)OCO5)ccc3O[C@@H]2[C@@H](CO)O1`, the relative growth is inactive: 0.992.

As to `Cc1ccc(S(=O)(=O)Nc2ccc3c(c2)CC(=O)N([C@H](C)CO)C[C@@H](C)[C@H](CN(C)Cc2ccc(-c4ccccc4)cc2)O3)cc1`, the relative growth was inactive: 1.06.

With `C[C@@H]1CCCCO[C@@H](CN(C)C(=O)Nc2ccc(F)cc2)[C@@H](C)CN([C@H](C)CO)C(=O)c2cc(NC(=O)Nc3ccc(C(F)(F)F)cc3)ccc2O1`, the relative growth is inactive: 1.02.

As for `C[C@@H]1CCCCO[C@H](CN(C)C(=O)CCC(F)(F)F)[C@@H](C)CN([C@H](C)CO)C(=O)c2cc(NC(=O)Cc3ccccc3)ccc2O1`, the relative growth is inactive: 0.99.

Regarding `COc1ccc(CN(C)C[C@@H]2OCCCC[C@H](C)Oc3ccc(NC(=O)Nc4ccc(C(F)(F)F)cc4)cc3C(=O)N([C@@H](C)CO)C[C@@H]2C)cc1`, the relative growth was inactive: 0.956.

With `CC(C)CC#Cc1ccc2c(c1)O[C@@H](CN(C)C(=O)C1CCOCC1)[C@H](C)CN([C@@H](C)CO)S2(=O)=O`, the relative growth is inactive: 1.01.

For the compound `Cc1ccc(S(=O)(=O)N(C)C[C@@H]2OCCCC[C@@H](C)Oc3ccc(NC(=O)Cc4ccccc4)cc3C(=O)N([C@@H](C)CO)C[C@H]2C)cc1`, the relative growth was inactive: 1.

Regarding `COc1ccc(S(=O)(=O)N(C)C[C@H]2Oc3c(NS(=O)(=O)c4cn(C)cn4)cccc3C(=O)N([C@H](C)CO)C[C@@H]2C)cc1`, the relative growth was inactive: 1.01.

`CC1=NCC[C@@H](C(=O)O)N1`: the relative growth is inactive: 0.931.

Turning to `NC[C@@](O)(CS(=O)(=O)O)c1ccc(Cl)cc1`, the relative growth is inactive: 0.996.

In the case of `COc1cccc(NC(=O)N2C[C@@H](O)COC[C@H]3O[C@@H](CC(=O)NCCCN4CCOCC4)CC[C@@H]32)c1`, the relative growth is inactive: 1.02.

On to `Cc1noc(C)c1NC(=O)Nc1cccc2c1O[C@@H](CN(C)Cc1ccc(Oc3ccccc3)cc1)[C@H](C)CN([C@H](C)CO)C2=O`, for which the relative growth is inactive: 0.995.

Consider `C[C@@H]1CCCCO[C@@H](CN(C)Cc2ccncc2)[C@H](C)CN([C@H](C)CO)C(=O)c2cc(NC(=O)Nc3ccc4c(c3)OCO4)ccc2O1`, for which the relative growth is inactive: 0.988.

Regarding `COc1ccccc1C#Cc1ccc2c(c1)O[C@@H](CN(C)C(C)=O)[C@H](C)CN([C@@H](C)CO)S2(=O)=O`, the relative growth was inactive: 1.04.

For `C=CCOC(=O)[C@H]1[C@@H]2C(=O)O[C@@H](c3ccccc3)[C@@H](c3ccccc3)N2[C@@H](c2ccc(OCCOC(=O)NCCCCCC(=O)NO)cc2)[C@@]12C(=O)Nc1ccccc12`, the relative growth is inactive: 1.03.

As for `C[C@H]1CN([C@@H](C)CO)C(=O)c2cc(NC(=O)C3CC3)ccc2O[C@@H]1CN(C)Cc1ccc(Oc2ccccc2)cc1`, the relative growth was inactive: 1.

As for `O=C(C[C@@H]1CC[C@H]2[C@@H](COC[C@@H](O)CN2CC2CCOCC2)O1)N1CCOCC1`, the relative growth is inactive: 1.02.

As to `CN1C(=O)/C(=C(/C#N)C(N)=O)c2ccccc21`, the relative growth is inactive: 1.

Turning to `Cc1cc(C(=O)Nc2cccc3c2O[C@@H](CN(C)C(=O)Nc2ccccc2)[C@H](C)CN([C@@H](C)CO)C3=O)n(C)n1`, the relative growth is inactive: 0.996.

Regarding `CCCCC[C@@H](C[C@@H](CC(=O)O)O[C@H]1O[C@@H](CO)[C@@H](O)[C@@H](O)[C@@H]1O)OC(=O)C[C@H](O)C[C@H](CCCCC)O[C@H]1O[C@@H](CO)[C@@H](O)[C@@H](O)[C@@H]1O`, the relative growth is inactive: 0.986.

With `C[C@H]1CN([C@@H](C)CO)C(=O)c2ccccc2-c2ccccc2CO[C@@H]1CN(C)Cc1ccc(Cl)c(Cl)c1`, the relative growth was inactive: 0.98.

In the case of `C[C@H](CO)N1C[C@H](C)[C@@H](CN(C)C(=O)C2CCCCC2)OCCCC[C@H](C)Oc2ccc(NS(=O)(=O)c3ccc(F)cc3)cc2C1=O`, the relative growth is inactive: 1.

`COc1ccc(S(=O)(=O)Nc2cccc3c2O[C@@H](CN(C)Cc2ccc(Oc4ccccc4)cc2)[C@H](C)CN([C@@H](C)CO)C3=O)cc1`: the relative growth was inactive: 1.02.

With `C[C@H]1CN([C@@H](C)CO)C(=O)c2cc(-c3cccc(C#N)c3)cnc2O[C@H]1CN(C)C(=O)c1cnccn1`, the relative growth is inactive: 1.02.

Regarding `C[C@H]1CN([C@@H](C)CO)C(=O)CCCn2nncc2CO[C@@H]1CN(C)S(=O)(=O)c1ccc(Cl)cc1`, the relative growth is inactive: 0.995.

Consider `COC(=O)C1=CC(CCCO)=C[C@@H](c2ccc(CN3CCCC3)cc2)N(Cc2sc3ccccc3c2Cl)C=C1C(=O)OC`, for which the relative growth was inactive: 0.983.

Take `Cc1cncc2cccc(S(=O)(=O)N3CC[C@H](N(C/C=C/c4ccc(Br)cc4)C/C=C/c4ccc(Br)cc4)C3)c12`: the relative growth is inactive: 1.03.
